Out of some 45,000 compounds screened, about 65 (0.1%) were called active. The call rests on the fitted dose curve; in most records, active means well fitted activation curve with a large enough effect; inconclusive means small, poorly fitted or top-dose-only effect; inactive means no such curve, though single readings can be large or run the other way. Some of the results follow.
The compounds below were run against Galactocerebrosidase (Homo sapiens) (UniProt P54803) (assay: A Novel Cell-Based Assay to Identify Small Molecules for B -Galactocerebrosidase). Details: 145M-Twi-hGALC-G270D cells, HMU-beta-Gal fluorescence, 48 h; series mostly up to 57.5 µM; activation: at the top concentration.
Outline: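 qHTS, 1536-well; 145M-Twi-hGALC-G270D cells (WT line also made) in DMEM/F12 + 10% FBS; compound incubation on live cells; HMU-β-gal 0.1 mM final, pH 5.2, NaTC; carbonate stop; fluorescence increase = enhanced residual activity.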
Further: 0% is about no effect; nearly all actives have a fitted effect of over 65% in size.

Chain of UniProt P54803 (P54803 whole entry, looked up): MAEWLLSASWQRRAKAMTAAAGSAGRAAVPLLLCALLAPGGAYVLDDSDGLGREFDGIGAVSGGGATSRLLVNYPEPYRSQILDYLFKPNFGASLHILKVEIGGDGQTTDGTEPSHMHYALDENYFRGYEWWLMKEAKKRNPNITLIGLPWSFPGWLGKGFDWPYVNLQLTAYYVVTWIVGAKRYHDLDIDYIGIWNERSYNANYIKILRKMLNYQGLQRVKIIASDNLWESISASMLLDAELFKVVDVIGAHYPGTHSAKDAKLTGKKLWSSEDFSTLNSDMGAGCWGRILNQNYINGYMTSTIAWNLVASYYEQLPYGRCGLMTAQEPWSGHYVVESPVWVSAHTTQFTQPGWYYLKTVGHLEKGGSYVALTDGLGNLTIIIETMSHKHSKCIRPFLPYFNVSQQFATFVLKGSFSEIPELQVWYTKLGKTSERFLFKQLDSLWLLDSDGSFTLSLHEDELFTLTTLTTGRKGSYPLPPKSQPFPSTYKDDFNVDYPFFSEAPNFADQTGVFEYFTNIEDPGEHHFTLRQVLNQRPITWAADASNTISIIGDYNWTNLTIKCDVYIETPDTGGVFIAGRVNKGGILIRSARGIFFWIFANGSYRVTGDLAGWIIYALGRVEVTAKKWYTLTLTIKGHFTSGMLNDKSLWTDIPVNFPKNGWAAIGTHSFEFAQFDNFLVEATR

activation, inactive:
COc1ccc(CNC(=O)c2nnn(CC(=O)Nc3cc(C)cc(C)c3)c2N)cc1 -26.1%
Cc1ccc(C)c(CN2CCCN(Cc3cc(C)ccc3C)S2(=O)=O)c1 -9%
COc1ccccc1C(=O)NC1(C(F)(F)F)C(=O)Nc2c1c(=O)[nH]c(=O)n2CCc1ccccc1 (stereo not given) -5.84%
CCCn1c(SCC(O)c2cccc(OC)c2)nc2ccccc21 (stereo not given) -2.51%
O=C(Nc1ccc(N2CCN(CCOc3ccc(Cl)cc3)CC2)c(C(=O)O)c1)c1ccc(F)cc1 3.76%
Cc1ccc(S(=O)(=O)C(CNC(=O)C(=O)NCCc2ccccc2)c2ccco2)cc1 (stereo not given) -17.2%
COC(=O)c1ccc(-n2c(/C=C\c3cccc(Br)c3)nc3ccccc3c2=O)cc1 -6.03%
CCc1nc2ccccc2n1CCCCOc1ccccc1C -13.8%
Cc1cnc(NS(=O)(=O)c2ccc(N)cc2)nc1 -17.2%
Cc1cccc(-c2nc(SCC(=O)Nc3cccc(C(F)(F)F)c3)n3[nH]c(=O)cc3n2)c1 -14%
CCOc1ccc(CNC(=O)C2CCCN(S(=O)(=O)c3ccc4c(c3)CCCC(=O)N4)C2)cc1 (stereo not given) -33.7%
CC(C)CCNC(=O)CSc1c2c(nc3ccc(Cl)cc13)CCCC2 -9.61%
Cc1ccc(OCc2nc(-c3ccc(C(=O)N4CCN(c5ccc(Cl)cc5)CC4)cc3)oc2C)cc1 -3.83%
CCCCCCn1c(CNC(=O)c2ccccc2)nc2ccccc21 -18.5%
CCCn1c(=O)sc2cc(NC(=O)c3ccccc3OCC)ccc21 -12.4%
CCOC(=O)C1=C(CN2CCN(CC)CC2)NC(=O)NC1c1ccc(Cl)cc1 (stereo not given) -15.6%
Cc1cc(C(=O)NCc2ccccc2C)c2c(C)nn(-c3cccc(F)c3)c2n1 -5.81%
CCn1c(SCC(=O)c2ccc([N+](=O)[O-])cc2)nnc1-c1ccc(Cl)cc1 -2.63%
CCOC(=O)c1scc(-c2ccc(C)cc2)c1S(=O)(=O)Nc1cc(Cl)ccc1OC -14.5%
CCc1ccc(NC(=O)Cn2ncc3c4ccccc4n(C)c3c2=O)cc1 0.208%
COc1cccc(CNC(=O)Cn2cc3c(n2)-c2c(oc(C(=O)N4CCCC4)c2C)CC3)c1 -0.753%
O=C(CC1N=C2c3ccccc3N=C(SCc3ccc(F)cc3)N2C1=O)NCc1cccs1 (stereo not given) -16.6%
Clc1cccc(-c2csc(-c3nc(-c4ccc(Br)s4)cs3)n2)c1 -10%
CCN(CC)C(=O)c1sc2c(c1C)c(=O)n(-c1ccccc1)c(=O)n2Cc1cc(=O)n2ccccc2n1 -9.08%
CCOc1ccc(NC(=O)c2cc(S(=O)(=O)NC3CCCC3)ccc2F)cc1 -10.2%
CCOC(=O)c1c(S(=O)(=O)NCC(=O)Nc2cccc(CC)c2)c(C)n(C)c1C -12.7%
COC(=O)Cn1c(CN2CCN(c3ccc(OC)cc3)CC2)nc2c1c(=O)[nH]c(=O)n2C -10.6%
CCCCn1cc(S(=O)(=O)c2ccc(OC)cc2)c(=O)c2cc(F)c(F)cc21 -17.2%
CCOc1ccc(S(=O)(=O)N2CCN(c3ccc(Cl)c(Cl)c3)CC2)c2ccccc12 -23.6%
O=C(CCNS(=O)(=O)c1ccc2c(c1)CCN2C(=O)C1CC1)N1CCN(c2ccccc2F)CC1 -38.3%
CCOC(=O)c1c(C)[nH]c(CCC(=O)NCCCN2CCN(c3cc(C)ccc3C)CC2)c1C -9.63%
COc1ccccc1CNC(=O)CN1C(=O)CSc2ccc(S(=O)(=O)N(C)C)cc21 -14.9%
CCc1nc2cccnc2n1-c1ccc(CC(=O)Nc2ccc(C)cc2)cc1 -11.1%
O=C(O)C1CCC1 -11.6%
CCOc1ccc(CNC(=O)c2cnc3sc(N(CC)CC)nn3c2=O)cc1OC -2.05%
O=C(Cn1c(=O)n(-c2ccccc2Cl)c(=O)c2sc3ccccc3c21)N1CCCC1 1.48%
O=C(CCSCc1ccccc1Cl)N1CCN(c2cccc(Cl)c2)CC1 18.4%
COc1ccc(NC(=O)CC2C(=O)N(c3ccc(C)cc3)C(=O)N2C2CCCCC2)cc1 (stereo not given) -16.2%
CCCn1c(CCC(=O)Nc2cc(Cl)c(OC)cc2OC)nc2cccnc21 -9.91%
Cc1ccc(C)c(NC(=O)CSc2ncc3c(n2)-c2ccc(Cl)cc2N(C)S3(=O)=O)c1 -24.9%
CCn1nc(-c2ccccc2)c(-c2ccccc2)c(C(=O)Nc2nc(C)c(C(=O)N(C)C)s2)c1=O -5.29%
CCN(C(=O)CSc1nc2ccccc2n1CC(=O)Nc1ccccc1C)c1ccccc1 -20.5%
COc1cc(CNc2ccc3[nH]c(=O)[nH]c3c2)ccc1OCc1ccccc1F -16.6%
CCOC(=O)c1ccc(OCCN2C[C@H](O)[C@@H](O)[C@H](O)[C@H]2CO)cc1 -16.6%
COc1ccc(-n2ccn(Cc3ccccc3Cl)c(=O)c2=O)cc1OC -21.5%
CC(C)N(Cc1ccccc1)C(=O)CN1C(=O)COc2ccc(S(=O)(=O)NC3CCCC3)cc21 -14.7%
Cc1cc(C)cc(NC(=O)CCc2nnc3n(CC(C)C)c(=O)c4ccccc4n23)c1 -11.8%
Cc1ccc(NC(=O)CSc2nc3nccnc3c(=O)n2CCc2c[nH]c3ccccc23)cc1 10.4%
Nc1cccc2c1CN(C1CCC(=O)NC1=O)C2=O (stereo not given) -5.27%
CCOC(=O)c1cc2c(=O)n3ccccc3nc2n(CCCOC)c1=NC(=O)C(C)(C)Oc1ccc(Cl)cc1 -14.2%
CN(C)c1ccc(C(CNS(=O)(=O)c2ccc(Br)cc2)N2CCCC2)cc1 (stereo not given) -15.4%
CCN(CC)S(=O)(=O)c1ccc(NC(=O)CCc2c(C)nc3cc(-c4ccc(Cl)cc4)nn3c2C)cc1 -44.4%
CC(C)Cc1nn2c(=O)cc(COC(=O)c3ccc4c(c3)OCO4)nc2s1 -6.76%
COc1ccc(Cl)cc1NC(=O)CSc1ccc(-c2sc(C)nc2C)nn1 -12.5%
Cc1ccc(NC(=O)Cn2ncn3c(cc4ccccc43)c2=O)c(C)c1 8.19%
CCOc1ccc(C2CC(=O)n3nc(-c4ccc(C)cc4)nc3S2)cc1 (stereo not given) -16.7%
CCc1ccc(N2C(=O)CC(c3cc(OC)ccc3OC)C3=C2COC3=O)cc1 (stereo not given) 2.03%
CC(=O)Nc1ccc(O)cc1 -3.55%
COc1ccc(CNC(=O)CSc2nc3ccsc3c(=O)n2Cc2ccccc2Cl)cc1 -5.28%
O=C(Nc1ccc2oc(-c3cccnc3)nc2c1)c1ccc(-c2ccc(Cl)cc2)o1 -14.7%
Cc1cc2oc(C(=O)Nc3sc4c(c3C(=O)NCC3CCCO3)CCC4)cc(=O)c2cc1C (stereo not given) -13.7%
CCOc1cc(CNC(=O)c2ccc(C)c(NC(=O)c3nsc4ccccc34)c2)ccc1OC -15.4%
COc1ccccc1CNC(=O)Cc1csc2nc(-c3ccc(Cl)cc3)cn12 -9.81%
CCCCCn1c(=N)c(S(=O)(=O)c2ccccc2)cc2c(=O)n3ccccc3nc21 -5.98%
CCOc1ccc(CCNC(=O)Cn2nc(CC)n3c(cc4sc(CC)cc43)c2=O)cc1OCC 6.16%
CCOc1cc2sc(N3CCC(C(=O)Nc4ccc(C)cc4)CC3)nc2cc1Br -13.4%
CC(NC(=O)c1ccc2c(c1)N(Cc1ccc(Cl)cc1)C(=O)c1ccccc1S2(=O)=O)c1ccccc1 (stereo not given) -9.76%
CCOC(=O)c1sc(NC(=O)c2nc3ncccn3n2)c(C(=O)OC)c1C -3.26%
COc1ccc(CNC(=O)CN(c2ccccc2OC)S(=O)(=O)c2ccc(C)cc2)cc1 -9.01%
CCc1ccc(CSc2nc(-c3ccc(OC)cc3)nc3c2Cc2c(CO)cnc(C)c2O3)cc1 -12.8%
O=S(=O)(NCc1ccccc1)c1ccc(-c2cnc(C3CC3)o2)cc1 -17.3%
O=c1oc2c(CN3CCOCC3)c(O)ccc2cc1-c1ccc(Cl)cc1 -25.4%
CCn1c(=O)c2cc(C(=O)NC3CCCCCC3)sc2c2ccccc21 -37.4%
CC(=O)Nc1nonc1-c1nnc(SCC(=O)Nc2cc(C)cc(C)c2)n1C -12.5%
O=c1c2cccnc2n(Cc2ccccc2F)c(=O)n1Cc1ccccc1Cl -6.89%
Cc1ccc(C)c(N2CCN(C(=O)CN3CCSc4ccc(S(=O)(=O)N(C)C)cc43)CC2)c1 -34.4%
CCCCOC(=O)CSc1nnc(-c2ccccc2)o1 -13.5%
C[C@]12CC[C@@H]3c4ccc(O)cc4CC[C@H]3[C@@H]1CCC2=O -17.6%
COc1nc(-c2ccc(C)cc2)ccc1-c1noc(-c2ccccc2Br)n1 -8.08%
COC(=O)c1ccc(Cl)cc1NC(=O)N1CCCn2nc(C)cc21 -29.9%
COc1cc(OC)c(NC(=O)CCCn2nc(C)c3sc4ccccc4c3c2=O)cc1Cl -1.78%
COc1ccc(-c2oc3ncn4nc(-c5ccccc5Br)nc4c3c2-c2ccc(OC)cc2)cc1 -18.9%
COc1ccccc1CNc1ccc(-c2nc(C)no2)cc1[N+](=O)[O-] -16.6%
Cc1oc2ncn(CC(C)C)c(=O)c2c1C(=O)N1CCN(c2ccc(F)cc2)CC1 4.95%
O=C(c1ccc(C(F)(F)F)cc1)N1CCC(c2nc(-c3ccc(S(=O)(=O)N4CCCC4)cc3)no2)CC1 -2.48%
COc1cccc(NC(=O)/C(C#N)=C\c2cn(Cc3ccc(C)cc3)c3ccccc23)c1 -19.6%
COc1cccc2c1Oc1ncccc1N(C(=O)CCC(=O)NCc1ccc(N(C)C)cc1)C2 -9.5%
O=C(CN1CCCN(Cc2ccc(Cl)cc2)S1(=O)=O)Nc1ccccc1F 3.23%
COc1cccc(NC(=O)c2oc3ccccc3c2NC(=O)c2ccc(C(F)(F)F)cc2)c1 -7.12%
Cc1ccc(C)c(NC(=O)Cn2cc(C(=O)C3CCCCC3)c3ccccc32)c1 -9.73%
O=C(c1ccc2c(c1)N(Cc1cccc(Cl)c1)C(=O)c1ccccc1S2(=O)=O)N1CCCCC1 -7.73%
Cc1ccc2[nH]c3c(=O)n(CC(=O)N(C)c4cc(Cl)ccc4C)ncc3c2c1 -4.14%
CC1=C(c2ccc(C)c(C)c2)S(=O)(=O)N=C1N1CCC(C(=O)NCCc2ccc(Cl)cc2)CC1 -13.2%
CCOc1ccc(NC(=O)N2CC=C(c3c[nH]c4ccccc34)CC2)cc1 -19.6%
CCOC(=O)c1c(C)[nH]c(C)c1S(=O)(=O)N1CCC(C(=O)N2CCN(c3ccc(Cl)cc3)CC2)CC1 -1.14%
